Measurements from PMC3084709, “TMEFF2 Is a PDGF-AA Binding Protein with Methylation-Associated Gene Silencing in Multiple Cancer Types Including Glioma” (PLoS ONE, 2011).
No constants are given. Whether binding was seen depends on the method and setting. For some of these results: In cells and extracts the contact can be indirect. Some entries that bind do so weakly or less than the wild type. For some of these results: Sequences can lack the tags named with a protein.

The chains behind the UniProt entries cited, without tags or fusion partners. Residues count along the entry.
UniProt P21860, residues 20-643: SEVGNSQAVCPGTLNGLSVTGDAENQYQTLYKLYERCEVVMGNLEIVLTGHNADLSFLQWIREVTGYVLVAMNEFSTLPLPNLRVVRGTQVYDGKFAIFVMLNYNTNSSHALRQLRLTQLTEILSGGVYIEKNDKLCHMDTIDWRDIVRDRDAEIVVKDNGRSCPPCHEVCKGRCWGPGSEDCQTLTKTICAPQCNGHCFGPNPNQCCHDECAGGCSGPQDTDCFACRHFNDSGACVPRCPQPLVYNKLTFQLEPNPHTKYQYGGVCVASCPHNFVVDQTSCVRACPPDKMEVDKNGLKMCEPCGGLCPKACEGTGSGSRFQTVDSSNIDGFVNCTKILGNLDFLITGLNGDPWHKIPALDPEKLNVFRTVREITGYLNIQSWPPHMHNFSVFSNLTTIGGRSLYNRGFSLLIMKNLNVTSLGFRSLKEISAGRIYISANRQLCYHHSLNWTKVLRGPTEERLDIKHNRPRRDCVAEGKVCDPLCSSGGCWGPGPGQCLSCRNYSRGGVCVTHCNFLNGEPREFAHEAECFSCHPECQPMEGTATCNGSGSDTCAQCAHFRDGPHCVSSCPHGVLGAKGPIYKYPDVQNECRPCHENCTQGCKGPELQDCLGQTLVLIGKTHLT

T1: extracellular domain (ECD) of TMEFF2 fused to a FLAG tag (TECD-FLAG) (human) (UniProt Q9UIK5)
T1 sequence (chain, biotin (only in the ForteBio experiment, biotinylated TMEFF2-FLAG)): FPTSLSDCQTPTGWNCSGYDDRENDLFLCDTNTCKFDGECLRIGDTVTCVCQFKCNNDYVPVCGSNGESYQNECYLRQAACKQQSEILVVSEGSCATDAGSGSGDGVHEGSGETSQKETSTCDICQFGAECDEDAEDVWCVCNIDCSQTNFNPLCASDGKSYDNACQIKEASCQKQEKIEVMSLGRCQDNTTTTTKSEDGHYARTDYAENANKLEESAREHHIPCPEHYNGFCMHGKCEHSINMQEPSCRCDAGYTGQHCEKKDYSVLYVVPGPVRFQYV

T2: full-length TMEFF2 (TMEFF2-FL) (human) (UniProt Q9UIK5)
T2 sequence: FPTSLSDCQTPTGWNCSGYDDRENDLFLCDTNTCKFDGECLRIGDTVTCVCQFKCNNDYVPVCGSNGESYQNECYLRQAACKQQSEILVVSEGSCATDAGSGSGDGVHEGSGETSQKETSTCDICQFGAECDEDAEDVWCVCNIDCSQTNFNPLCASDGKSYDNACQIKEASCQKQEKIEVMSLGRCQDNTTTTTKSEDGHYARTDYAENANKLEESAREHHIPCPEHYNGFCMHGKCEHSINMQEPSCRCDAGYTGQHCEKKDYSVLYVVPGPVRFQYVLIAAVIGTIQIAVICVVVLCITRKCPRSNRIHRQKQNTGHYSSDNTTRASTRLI

T3: gD-tagged full-length TMEFF2 (human) (UniProt Q9UIK5)
T3 sequence: T2 sequence

B1: HER4 extracellular domain fused to hFcγ (Fc fusion, UniProt Q15303 26-651)
chain: QSVCAGTENKLSSLSDLEQQYRALRKYYENCEVVMGNLEITSIEHNRDLSFLRSVREVTGYVLVALNQFRYLPLENLRIIRGTKLYEDRYALAIFLNYRKDGNFGLQELGLKNLTEILNGGVYVDQNKFLCYADTIHWQDIVRNPWPSNLTLVSTNGSSGCGRCHKSCTGRCWGPTENHCQTLTRTVCAEQCDGRCYGPYVSDCCHRECAGGCSGPKDTDCFACMNFNDSGACVTQCPQTFVYNPTTFQLEHNFNAKYTYGAFCVKKCPHNFVVDSSSCVRACPSSKMEVEENGIKMCKPCTDICPKACDGIGTGSLMSAQTVDSSNIDKFINCTKINGNLIFLVTGIHGDPYNAIEAIDPEKLNVFRTVREITGFLNIQSWPPNMTDFSVFSNLVTIGGRVLYSGLSLLILKQQGITSLQFQSLKEISAGNIYITDNSNLCYYHTINWTTLFSTINQRIVIRDNRKAENCTAEGMVCNHLCSSDGCWGPGPDQCLSCRRFSRGRICIESCNLYDGEFREFENGSICVECDPQCEKMEDGLLTCHGPGPDNCTKCSHFKDGPNCVEKCPDGLQGANSFIFKYADPDRECHPCHPNCTQGCNGPTSHDCIYYPWTGHSTLPQHARTP
B2: extracellular domain (ECD) of TMEFF2 fused to the Fc portion of the human immunoglobulin gamma (TECD-Fc) (Fc fusion, UniProt Q9UIK5-1 41-320)
chain: T1 sequence (chain, biotin (only in the ForteBio experiment, biotinylated TMEFF2-FLAG))

Experiments:
[1] = target: T1, extracellular domain (ECD) of TMEFF2 fused to a FLAG tag (TECD-FLAG) (human); assay: ELISA; TMEFF2 coat format: MaxiSorp plates coated with 1 µg/ml TECD-FLAG in 50 mM carbonate buffer pH 9.6 overnight at 4°C; serially diluted PDGF-AA, AB, BB or Fc-fusion proteins in PBS with 0.5% BSA, 0.05% polysorbate 20, 2 hours; bound PDGF detected with biotinylated anti-PDGF-A or anti-PDGF-B and streptavidin-HRP, bound Fc fusions with anti-human Fc-HRP; both purified
[2] = target: T2, full-length TMEFF2 (TMEFF2-FL) (human); assay: co-IP; 293 cells transfected with TMEFF2 constructs; 5 µg/ml PDGF-AA or AB in fresh medium for 30 minutes, washed with ice cold PBS, lysed (50 mM Tris pH 8.0, 150 mM NaCl, 1 mM EDTA, 1% NP-40); immunoprecipitated with anti-TMEFF2 pAb or anti-gD mAb; blotted with anti-PDGF-A; only the binder …
[3] = target: T3, gD-tagged full-length TMEFF2 (human); assay: as above
[4] = target: T1, extracellular domain (ECD) of TMEFF2 fused to a FLAG tag (TECD-FLAG) (human); assay: BLI; label free ForteBio platform; biotinylated TMEFF2-FLAG immobilized on the streptavidin-coated sensor, PDGF ligands in solution; data not shown; both purified

Molecule	binding [1]	binding [2]	binding [3]	binding [4]
EGFR extracellular domain fused to hFcγ (from UniProt P00533 25-645) (Fc fusion)	no binding	–	–	–
HER2 extracellular domain fused to hFcγ (from UniProt P04626 23-652) (Fc fusion)	no binding	–	–	–
HER3 extracellular domain fused to hFcγ (from UniProt P21860 20-643) (Fc fusion)	no binding	–	–	–
recombinant human PDGF-AA (from UniProt P04085 87-211) (ligand)	binds	binds	binds	binds
recombinant human PDGF-AB (from UniProt P04085 87-211; P01127 82-190) (ligand)	–	no binding (tested: 5 µg/ml PDGF-AB in the medium)	–	–
B1	no binding	–	–	–
B2	no binding	–	–	–
